# Out of some 39,000 compounds screened, about 220 (0.56%) showed activity. This is one part of the list.
# Test system: Escherichia coli K-12 BW25113
# Experiment: relative growth (OD600 normalised to plate interquartile mean) (fraction); higher = less growth inhibition, active = 0.2 or less
# Conditions: 50 µM; LB; incubation time: overnight (16-24 h)
# 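Further: static incubation at 37 °C against the wild-type strain, values averaged over two biological replicates.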
row,SMILES,relative growth
1,CO[C@H]1CN(C)C(=O)c2ccc(NS(=O)(=O)CC(F)(F)F)cc2OC[C@@H](C)N(Cc2nccs2)C[C@H]1C,inactive: 0.992
2,O=C(C[C@H]1C=C[C@H](NS(=O)(=O)c2ccccc2)[C@H](CO)O1)NCc1ccncn1,inactive: 0.981
3,COC(=O)CC1C(C)(C)C(OC(C)=O)C2CC3C4CC(=O)OC(c5ccoc5)C4(C)CCC3C1(C)C2=O (stereo not drawn),inactive: 0.979
4,CN(C)S(=O)(=O)Nc1cccc(N)c1,inactive: 1.03
5,CC(C)NC(=O)N(C)C[C@H]1OCCCC[C@H](C)Oc2ccc(NC(=O)Nc3ccccc3)cc2C(=O)N([C@@H](C)CO)C[C@H]1C,inactive: 1
6,CO[C@@H]1CN(C)C(=O)c2ccc(NS(C)(=O)=O)cc2OC[C@H](C)N(C(=O)C2CCOCC2)C[C@H]1C,inactive: 0.994
7,Cc1ccc(S(=O)(=O)N(C)C[C@H]2OCCCC[C@H](C)Oc3ccc(NC(=O)Nc4cccc5ccccc45)cc3C(=O)N([C@H](C)CO)C[C@@H]2C)cc1,inactive: 1.05
8,C[C@@H]1CN([C@H](C)CO)C(=O)c2cccc(NC(=O)c3cnccn3)c2O[C@H]1CN(C)Cc1ccc2c(c1)OCO2,inactive: 0.989
9,C[C@H](CO)N1C[C@H](C)[C@H](CN(C)C(=O)NC2CCCCC2)Oc2ccc(NC(=O)Nc3cccc4ccccc34)cc2C1=O,inactive: 1.01
10,C[C@@H]1CN([C@@H](C)CO)C(=O)c2cccc(NC(=O)Nc3ccc(C(F)(F)F)cc3)c2O[C@@H]1CN(C)S(=O)(=O)c1ccc(Cl)cc1,inactive: 0.959
11,CCCNC(=O)c1cc2c(c(-c3cccc(-c4cc5ccccc5o4)c3)n1)[C@H](CCO)N(C(=O)NC(C)C)C2,inactive: 0.99
12,C[C@H]1CN([C@@H](C)CO)S(=O)(=O)c2ccc(C#Cc3cccc(F)c3)cc2O[C@@H]1CN(C)C(=O)CN1CCOCC1,inactive: 1.02
13,C/C=C/c1ccc([C@@H]2[C@H](CO)N(S(=O)(=O)Cc3ccccc3)C23CN(C(=O)C2CCOCC2)C3)cc1,inactive: 1.03
14,C[C@@H]1CN([C@@H](C)CO)C(=O)Cc2cc(NC(=O)Cc3ccccc3)ccc2O[C@@H]1CN(C)C(=O)Nc1cccc2ccccc12,inactive: 1.04
15,C[C@@H]1CN([C@H](C)CO)C(=O)c2cc(-c3ccc(F)cc3)cnc2O[C@@H]1CN(C)C(=O)Cc1ccccn1,inactive: 0.989
16,CN1C(=O)c2cc(NC(=O)c3cccs3)ccc2OC[C@H]2O[C@@H](CC(=O)NCC(F)(F)F)CC[C@@H]21,inactive: 1.04
17,Cc1noc(C)c1NC(=O)Nc1ccc2c(c1)CC(=O)N([C@@H](C)CO)C[C@@H](C)[C@H](CN(C)CC1CC1)O2,inactive: 0.985
18,C[C@H]1CN([C@@H](C)CO)C(=O)CCCn2cc(nn2)CO[C@@H]1CN(C)C(=O)Nc1cccc2ccccc12,inactive: 0.978
19,C[C@H]1CCCCO[C@H](CN(C)C(=O)c2ccncc2)[C@@H](C)CN([C@@H](C)CO)C(=O)c2cc(NS(=O)(=O)c3cn(C)cn3)ccc2O1,inactive: 1.01

row,SMILES,relative growth
1,COc1ccc(S(=O)(=O)N(C)C[C@@H]2OCCCC[C@H](C)Oc3ccc(NS(=O)(=O)c4cn(C)cn4)cc3C(=O)N([C@@H](C)CO)C[C@@H]2C)cc1,inactive: 0.91
2,Cc1noc(C)c1S(=O)(=O)Nc1ccc2c(c1)C(=O)N([C@@H](C)CO)C[C@@H](C)[C@H](CN(C)Cc1ccccc1)O2,inactive: 0.988
3,COc1ccc(NC(=O)Nc2cccc3c2O[C@H](CN(C)Cc2ccc(C(=O)Nc4ccccc4N)cc2)[C@@H](C)CN([C@H](C)CO)C3=O)cc1,inactive: 0.975
4,Cc1noc(C)c1NC(=O)Nc1ccc2c(c1)C(=O)N([C@@H](C)CO)C[C@H](C)[C@@H](CN(C)Cc1ccc(Cl)c(Cl)c1)OCCCC[C@@H](C)O2,inactive: 1.04
5,Cc1noc(C)c1S(=O)(=O)Nc1cccc2c1O[C@H](CN(C)C(=O)NC1CCCCC1)[C@H](C)CN([C@H](C)CO)C2=O,inactive: 0.887
6,C[C@H]1CN([C@@H](C)CO)C(=O)c2cc(NC(=O)Cn3cnnn3)ccc2O[C@H]1CN(C)C(=O)Nc1ccccc1,inactive: 1.02
7,C[C@@H]1CN([C@@H](C)CO)C(=O)Cc2cc(NS(=O)(=O)c3ccc(F)cc3)ccc2O[C@@H]1CN(C)Cc1ccc(Cl)c(Cl)c1,inactive: 1
8,COc1ccc(NC(=O)Nc2ccc3c(c2)C(=O)N([C@H](C)CO)C[C@H](C)[C@@H](CN(C)C(=O)Nc2ccc4c(c2)OCO4)OCCCC[C@@H](C)O3)cc1,inactive: 1.03
9,Cc1ccc(S(=O)(=O)Nc2ccc3c(c2)C(=O)N([C@@H](C)CO)C[C@H](C)[C@H](CN(C)S(=O)(=O)c2ccc(F)cc2)OCCCC[C@@H](C)O3)cc1,inactive: 1.02
10,CCCCCCCCCCCCCCCCCC(=O)O,inactive: 1.01
11,C[C@@H]1CN([C@@H](C)CO)S(=O)(=O)c2ccc(-c3cccnc3)cc2O[C@@H]1CN(C)C(=O)NC1CCCCC1,inactive: 1
12,COCC#Cc1ccc2c(c1)O[C@H](CN(C)C(=O)CN(C)C)[C@H](C)CN([C@@H](C)CO)S2(=O)=O,inactive: 0.966
13,C[C@H]1CN([C@@H](C)CO)C(=O)c2cccc(NC(=O)c3ccc(-c4nccs4)cc3)c2O[C@H]1CN(C)S(C)(=O)=O,inactive: 0.981
14,C[C@@H]1CN([C@@H](C)CO)C(=O)Cc2cc(NC(=O)Cc3ccccc3)ccc2O[C@@H]1CN(C)S(=O)(=O)c1ccc(F)cc1,inactive: 0.993
15,COc1ccc(NC(=O)Nc2ccc3c(c2)C(=O)N([C@H](C)CO)C[C@H](C)[C@H](CN(C)C(=O)Nc2c(C)noc2C)OCCCC[C@@H](C)O3)cc1,inactive: 1
16,C[C@H](CO)N1C[C@H](C)[C@H](CN(C)S(C)(=O)=O)Oc2ccc(NC(=O)NC3CCCCC3)cc2C1=O,inactive: 1.06
17,O=C(C[C@@H]1CC[C@@H]2[C@H](COC[C@@H](O)CN2C(=O)Nc2ccc(Cl)cc2)O1)NCCc1ccncc1,inactive: 0.944
18,Oc1ccc(C=Cc2cc(O)cc(O)c2)cc1,inactive: 1.04
19,Cc1ccc(S[C@]2(C(=O)NCc3ccccc3)CC(=O)N(Cc3cc(C(F)(F)F)cc(C(F)(F)F)c3)[C@@H]2c2ccc(CO)cc2)cc1,inactive: 1.01

# Reference: the supplement of paper PMC9446081
